{"source": "the supplement of paper PMC5499739", "note": "Over roughly 16,000 sequences, “Z-score” has its median near -0.37; the highest 2% begin near 3.1. Some of the results follow.", "data": [{"tested_on": "RBM10 RRM1-ZnF-RRM2 (GST-tagged construct)", "assay": "RNAcompete 7-mer binding Z-score; higher = stronger binding preference", "method_in_brief": "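Each heptamer motif was given a one-sided Z-score for enrichment across the probes that contained it. GST-tagged RBM10 constructs (20 pmol) were combined with 1.5 nmol of a designed pool of 241 399 RNAs of up to 41 nt, transcribed from microarray-derived DNA templates. Binding took place in 1 ml Hepes pH 7.8 buffer containing KCl, NaCl, glycerol, DTT, BSA and glutathione Sepharose beads for 30 min at 4°C. After four 2-min washes at 4°C, bound RNA was identified by microarray hybridisation.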", "values": [{"sequence": "CGUAUCC", "RNAcompete 7-mer binding Z-score": -0.679}, {"sequence": "AGCUCGG", "RNAcompete 7-mer binding Z-score": 0.0604}, {"sequence": "UAGCAAC", "RNAcompete 7-mer binding Z-score": -0.282}, {"sequence": "AUGUCUA", "RNAcompete 7-mer binding Z-score": -0.69}, {"sequence": "GUCUCCG", "RNAcompete 7-mer binding Z-score": -0.522}, {"sequence": "AUUAGUC", "RNAcompete 7-mer binding Z-score": -0.457}, {"sequence": "AGCGCUA", "RNAcompete 7-mer binding Z-score": -0.395}, {"sequence": "UGUACCU", "RNAcompete 7-mer binding Z-score": -0.766}, {"sequence": "GCAGCGU", "RNAcompete 7-mer binding Z-score": 0.264}, {"sequence": "GGUGUGA", "RNAcompete 7-mer binding Z-score": 2.4}, {"sequence": "CCGCCAG", "RNAcompete 7-mer binding Z-score": -0.599}, {"sequence": "CUAACCA", "RNAcompete 7-mer binding Z-score": -0.661}, {"sequence": "GCCGUGA", "RNAcompete 7-mer binding Z-score": -0.114}, {"sequence": "CAACCGA", "RNAcompete 7-mer binding Z-score": -0.573}, {"sequence": "UACUAGG", "RNAcompete 7-mer binding Z-score": 0.512}, {"sequence": "GUUUGAG", "RNAcompete 7-mer binding Z-score": 0.465}, {"sequence": "ACCCGAA", "RNAcompete 7-mer binding Z-score": -0.799}, {"sequence": "GAUCGGC", "RNAcompete 7-mer binding Z-score": -0.133}, {"sequence": "CGUGGAG", "RNAcompete 7-mer binding Z-score": 1.93}, {"sequence": "UCCCCUC", "RNAcompete 7-mer binding Z-score": -0.471}, {"sequence": "CGGACCC", "RNAcompete 7-mer binding Z-score": -0.246}, {"sequence": "ACCGGUU", "RNAcompete 7-mer binding Z-score": -0.34}, {"sequence": "UAGGUCC", "RNAcompete 7-mer binding Z-score": 0.0495}, {"sequence": "UCUACGG", "RNAcompete 7-mer binding Z-score": -0.242}, {"sequence": "CCGACUG", "RNAcompete 7-mer binding Z-score": -0.595}, {"sequence": "CACUUAG", "RNAcompete 7-mer binding Z-score": -0.566}, {"sequence": "CCAUGUU", "RNAcompete 7-mer binding Z-score": -0.825}, {"sequence": "UUUAGCU", "RNAcompete 7-mer binding Z-score": -0.832}, {"sequence": "CCCCUAG", "RNAcompete 7-mer binding Z-score": -0.395}, {"sequence": "CAACACG", "RNAcompete 7-mer binding Z-score": -0.322}, {"sequence": "AAUGUAA", "RNAcompete 7-mer binding Z-score": 0.0969}, {"sequence": "UCUAAGA", "RNAcompete 7-mer binding Z-score": -0.595}, {"sequence": "AUAAGUA", "RNAcompete 7-mer binding Z-score": -0.0707}, {"sequence": "UCUACCA", "RNAcompete 7-mer binding Z-score": -0.719}, {"sequence": "UGCGAGC", "RNAcompete 7-mer binding Z-score": 0.286}, {"sequence": "AAUCUAC", "RNAcompete 7-mer binding Z-score": -0.639}, {"sequence": "UAUCAAG", "RNAcompete 7-mer binding Z-score": -0.147}, {"sequence": "UACCAGG", "RNAcompete 7-mer binding Z-score": 0.385}, {"sequence": "CCGGCCC", "RNAcompete 7-mer binding Z-score": -0.763}, {"sequence": "AAGACAU", "RNAcompete 7-mer binding Z-score": -0.118}, {"sequence": "CAUUUGA", "RNAcompete 7-mer binding Z-score": -0.715}, {"sequence": "AGUAUGG", "RNAcompete 7-mer binding Z-score": 2.52}, {"sequence": "GGAAUAC", "RNAcompete 7-mer binding Z-score": 1.02}, {"sequence": "AAGCUGA", "RNAcompete 7-mer binding Z-score": -0.205}, {"sequence": "AUGAUAU", "RNAcompete 7-mer binding Z-score": -0.162}, {"sequence": "AAUAACG", "RNAcompete 7-mer binding Z-score": -0.103}, {"sequence": "AGAUGUC", "RNAcompete 7-mer binding Z-score": -0.544}, {"sequence": "UCUGCUG", "RNAcompete 7-mer binding Z-score": -0.759}, {"sequence": "UGUUUCA", "RNAcompete 7-mer binding Z-score": -0.683}, {"sequence": "CGAGCAC", "RNAcompete 7-mer binding Z-score": -0.195}, {"sequence": "CCUUCCC", "RNAcompete 7-mer binding Z-score": -0.635}, {"sequence": "ACCGUUA", "RNAcompete 7-mer binding Z-score": -0.726}, {"sequence": "UCCCAGA", "RNAcompete 7-mer binding Z-score": -0.646}, {"sequence": "CACUCGC", "RNAcompete 7-mer binding Z-score": -0.803}, {"sequence": "CCUAGGA", "RNAcompete 7-mer binding Z-score": -0.0962}, {"sequence": "AGGGGGG", "RNAcompete 7-mer binding Z-score": 2.05}, {"sequence": "CCGCACA", "RNAcompete 7-mer binding Z-score": -0.774}, {"sequence": "UUCCCUC", "RNAcompete 7-mer binding Z-score": -0.752}, {"sequence": "ACAAGAA", "RNAcompete 7-mer binding Z-score": -0.0634}, {"sequence": "GAAAUGC", "RNAcompete 7-mer binding Z-score": 0.0823}, {"sequence": "GAUUAGC", "RNAcompete 7-mer binding Z-score": 0.0786}, {"sequence": "AGCGAAU", "RNAcompete 7-mer binding Z-score": 0.385}, {"sequence": "GGGCAAU", "RNAcompete 7-mer binding Z-score": 2.09}, {"sequence": "UUACGGA", "RNAcompete 7-mer binding Z-score": 0.224}, {"sequence": "CAACAUG", "RNAcompete 7-mer binding Z-score": -0.242}, {"sequence": "AGCUUAC", "RNAcompete 7-mer binding Z-score": -0.544}, {"sequence": "CAUUAGG", "RNAcompete 7-mer binding Z-score": 0.538}, {"sequence": "UAUGGUC", "RNAcompete 7-mer binding Z-score": 0.312}, {"sequence": "GUACCAG", "RNAcompete 7-mer binding Z-score": 0.232}, {"sequence": "GCCGUGC", "RNAcompete 7-mer binding Z-score": -0.395}, {"sequence": "AACAAUC", "RNAcompete 7-mer binding Z-score": -0.253}, {"sequence": "GGGGGGA", "RNAcompete 7-mer binding Z-score": 2.69}, {"sequence": "GGAUUAC", "RNAcompete 7-mer binding Z-score": 0.84}, {"sequence": "AGCUACC", "RNAcompete 7-mer binding Z-score": -0.763}, {"sequence": "AUUUGCA", "RNAcompete 7-mer binding Z-score": -0.639}, {"sequence": "CUAUGGU", "RNAcompete 7-mer binding Z-score": -0.227}, {"sequence": "ACAAACU", "RNAcompete 7-mer binding Z-score": -0.723}, {"sequence": "CUCUGGU", "RNAcompete 7-mer binding Z-score": -0.719}, {"sequence": "CUCUUCC", "RNAcompete 7-mer binding Z-score": -0.879}, {"sequence": "UUCAGAU", "RNAcompete 7-mer binding Z-score": -0.453}, {"sequence": "ACAACAC", "RNAcompete 7-mer binding Z-score": -0.304}, {"sequence": "GUCGUUC", "RNAcompete 7-mer binding Z-score": -0.278}, {"sequence": "GAUAUUA", "RNAcompete 7-mer binding Z-score": -0.129}, {"sequence": "ACACCGG", "RNAcompete 7-mer binding Z-score": 0.246}, {"sequence": "GGUCGCU", "RNAcompete 7-mer binding Z-score": -0.111}, {"sequence": "ACUUCUU", "RNAcompete 7-mer binding Z-score": -0.952}, {"sequence": "AACUCCG", "RNAcompete 7-mer binding Z-score": -0.486}, {"sequence": "GCUGCUA", "RNAcompete 7-mer binding Z-score": -0.599}, {"sequence": "ACGCCCA", "RNAcompete 7-mer binding Z-score": -0.916}, {"sequence": "AGCUUGG", "RNAcompete 7-mer binding Z-score": 0.425}, {"sequence": "GAAACAC", "RNAcompete 7-mer binding Z-score": -0.213}]}]}
